Measurements taken from PubChem BioAssay AID1240 (Sanford-Burnham Center for Chemical Genomics, 2008).
About 800 (1.6%) of roughly 50,000 compounds showed an effect of 50% or more. The list shows a part of the results.

Target: Bcl-2-like protein 10 (Homo sapiens) (UniProt Q9HD36)
Assay: Phenotype converters, Bcl-B/TR3 peptide binding displacement, primary biochemical FP (AID 1240);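 note: 0% = Bcl-B with tracer peptide and DMSO and 100% = tracer peptide lacking Bcl-B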
Settings: GST-Bcl-B / FITC-TR3 peptide fluorescence polarization; stronger effect = higher value; compound at 3.75 mg/L

UniProt Q9HD36, sequence (Q9HD36 whole entry, looked up): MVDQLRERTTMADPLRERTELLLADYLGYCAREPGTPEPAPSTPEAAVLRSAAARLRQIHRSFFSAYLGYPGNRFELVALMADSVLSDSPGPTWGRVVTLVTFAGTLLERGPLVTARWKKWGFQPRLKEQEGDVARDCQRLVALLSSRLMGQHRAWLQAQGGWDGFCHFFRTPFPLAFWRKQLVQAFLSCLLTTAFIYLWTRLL

SMILES	displacement [%]
COc1cccc(/C=C2/SC(=S)N(CC(=O)O)C2=O)c1	9.8
CCC(C(=O)N1CCC(Cc2ccccc2)CC1)c1ccccc1 (stereo unspecified)	7.1
C=CCn1c(O)c(N=NC(=O)c2ccc(Cl)c([N+](=O)[O-])c2)c2cc(Br)ccc21	5.3
CC(C)c1ccc(CNc2cc(N3CCCC3)ccc2[N+](=O)[O-])cc1	-9.4
C/C(=N/NC(=O)Nc1ccccc1)C1CC1	12.9
Cc1c(C(=O)NN(c2ccccc2)c2ccccc2)cccc1[N+](=O)[O-]	-4.1
O=C(O)CCCN1C(=O)C(=O)/C(=C(/O)c2ccccc2)C1c1ccccc1F (stereo unspecified)	-2.5
CS(=O)(=O)N(CC(=O)NC1CC1)c1ccc(Cl)cc1	-13.2
O=C(Nc1ccc(Cl)c(Cl)c1)Nc1nnc(-c2ccc(F)cc2)s1	5
CC(=O)c1ccc(N2C(=O)C3CCC(C)(C2=O)C3(C)C)cc1 (stereo unspecified)	-8.8
Cc1ccc2nc(SCC(=O)Nc3cccc([N+](=O)[O-])c3)[nH]c2c1	9
COc1ccc(CC(=O)Nc2cccc(Br)c2)cc1OC	2
CCOC(=O)/C=C/C(=O)Nc1nc(-c2ccccc2)cs1	-15.9
O=C(Cc1ccccc1)Nc1cc(C(F)(F)F)cc(C(F)(F)F)c1	-0.6
CC(=O)C1=C(O)C(=O)N(c2nc3ccccc3s2)C1c1ccc(C(C)C)cc1 (stereo unspecified)	-12.7
NS(=O)(=O)c1cccc(-c2ccc(C=O)o2)c1	7.1

SMILES	displacement [%]
Cc1cc(C)c(N2C(=O)NC(=O)C(=Cc3ccoc3)C2=O)c(C)c1	14.1
CCOCCOC(=O)c1ccc(NC(=O)c2ccc(C)cc2)cc1	7.4
CC(C)(C)P(=O)(c1ccc(C(=O)O)cc1)C(C)(C)C	0.4
Cc1cccc(/N=C/c2ccccc2O)n1	-2.3
O=S(=O)(NCc1cccnc1)c1ccc(Br)cc1Br	10
Cc1c(C(=O)Nc2ccc(N(C)C)cc2)cccc1[N+](=O)[O-]	2.1
Cc1cccc(OCC(=O)Nc2ccc(S(=O)(=O)Nc3nccs3)cc2)c1C	3
CCCCCCNC(=O)c1[nH]ncc1[N+](=O)[O-]	-0.4
CCOc1ccc(N(CC(=O)NCC(C)C)S(C)(=O)=O)cc1	-0.2
CC(=O)C1=C(O)CC(C)(C)CC1=Nc1ccc(N)cc1	-15.8
COc1ccc(N(C)CN2C(=O)CSC2=O)cc1	8
CCOc1cc(OCC)cc(C(=O)Nc2ccc([N+](=O)[O-])cc2)c1	13.1
C(=N\c1nc2ccccc2n1CCN1CCOCC1)/c1cccs1	13.1
O=CNC(NC(=S)Nc1ccc(F)cc1)C(Cl)(Cl)Cl (stereo unspecified)	-1.1
CC(=O)c1cccc(NC(=O)c2cnn3c(-c4ccccc4)cc(-c4ccccc4)nc23)c1	11.4
